About 120 (0.25%) of roughly 48,000 compounds were called active. Not shown: some 4% with an inconclusive outcome. Calls follow the shape of the dose curve; as a rule, active = well fitted activation curve with a large enough effect; inconclusive = small, poorly fitted or top-dose-only effect, or another doubt; inactive = no such curve, though single readings can be large or run the other way. This is one part of the list.
Experiment: Primary qHTS for Identification of Small Molecule Activators of Huntingtin-Antisense Promoter Activity; also: nearly all actives have a fitted effect of over 55% in size
Settings: HEK293 HTT-AS promoter firefly luciferase reporter, 24 h; series mostly up to 57.5 µM; activity change, positive = activation: at the top concentration
In short: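 HEK293 Fluc reporter, 2,500 cells/well, 24 h pre-culture; cpds up to 57.5 uM final, 24 h 37 degrees C; Dual-Glo, 10 min RT; normalized vehicle = 0%, zero RLU = -100%.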

Activity change, positive = activation, inactive:
O=C(NCCCN1CCCCC1)c1ccc2c(c1)sc1nc(-c3ccc(F)cc3)cn12 4.79%, COCCNC(=O)Cn1cc2c(n1)-c1c(oc(C(=O)N3CCCC3)c1C)CC2 -8.48%, NC(=O)Cn1c(=O)n(CCCCCC(=O)NCc2ccccc2Cl)c(=O)c2sccc21 -12.4%, O=C(O)c1ccc[n+]([O-])c1 -4.84%, CC(CNC(=O)c1ccc(Nc2nc3ccccc3n3nnnc23)cc1)c1ccccc1 (configuration not stated) 8.19%, Cc1ccc(CSCCC(=O)N2CCN(c3cc(C)ccc3C)CC2)cc1 -30.8%, CCCN(CCC)C(=O)C1CCCN(c2ncnc3onc(-c4ccc(F)cc4)c23)C1 (configuration not stated) -6.5%, COc1ccc(-c2noc(CN(C(=O)Cc3ccc(C)cc3)C(C)C)n2)cc1 -29.3%, CCC(C)NC(=O)CSc1nnc(-c2ccc(C)cc2)c(-c2ccc(C)cc2)n1 (configuration not stated) -34.3%, O=C(NCCCO)C(=O)Nc1c2c(nn1-c1ccccc1)CSC2 -11.4%, COc1cccc(CNC(=O)C2CCN(C(=O)c3sccc3-n3cccc3)CC2)c1 -22.7%, CCC(CC)C(=O)NCc1nc2cccnc2n1Cc1ccc(F)cc1 -13.7%, CCCN(CCC)C(=O)c1cn(CC)c2ccc(S(=O)(=O)N3CCCCC3)cc2c1=O 23.6% [at 11.5 µM, percent change from vehicle, -100% = no light], O=C(CN1C(=O)C2(SCC(=O)N2c2ccccc2)c2ccccc21)NCCc1ccccc1 (configuration not stated) 0.452%, CCc1ccc(NC(=O)CSc2nc3c(sc4ccccc43)c(=O)n2CCN(CC)CC)cc1 1.54%, Cc1ccc(CNS(=O)(=O)c2cc3c(cc2C)N(C)CCO3)cc1 -29.9%, Cc1cn2c(=O)cc(COC(=O)c3ccccc3F)nc2s1 7.37%, COc1cc(C)ccc1OCCSc1nc2ccc(NC(=O)c3cccs3)cc2s1 -31.6%, Cc1ccc(C(=O)Nc2ccccc2C(=O)OCc2cc(=O)n3nc(C4CC4)sc3n2)cc1 11.6%, Cc1ccc(CNC(=O)CN2C(=O)CSc3ccc(S(=O)(=O)N4CCCC4)cc32)cc1 -7.26%, COc1ccc2nc3sc(C(=O)N4CCN(c5ccc(F)cc5)CC4)cc3cc2c1 5.3%, Cc1ccc(C)c(N2CCN(S(=O)(=O)c3ccc4c(c3)CCCN4C(=O)C3CCC3)CC2)c1 -23.7%, CCOC(=O)c1cc(-c2ccc(OC)cc2)n(CCC(=O)Nc2cccc(C(C)=O)c2)c1C -39.5%, COc1ccc(CNS(=O)(=O)c2ccc(F)c(C(=O)Nc3c(C)cc(C)cc3C)c2)cc1 -22%, Cc1cc2oc(C(=O)Nc3sc4c(c3C(=O)NCc3ccccc3)CCCC4)cc(=O)c2cc1C 2.14%, CN(C)c1ccc(CNC(=O)CN2C(=O)CCn3nc(-c4cn(C)c5ccccc45)cc32)cc1 -3.62%, COc1cccc(-c2nc3c(c(SCc4ccccc4Cl)n2)Cc2c(CO)cnc(C)c2O3)c1 -6.84%, CCOc1ccc(OCC)c(-n2cnnn2)c1 -15.6%, Cc1c(NC(=O)Nc2ccc(Cl)c(C(F)(F)F)c2)c(=O)n(-c2ccccc2)n1C 0.141%, Fc1ccccc1N1CCN(c2ncnc3onc(-c4cccc(Cl)c4)c23)CC1 -22.3%, CC(=O)Nc1ccc(NC(=O)c2nc(SCc3ccccc3C)ncc2Cl)cc1 -15.8%, Cc1cccn2c(=O)cc(COc3ccc(NC(=O)C(C)Oc4ccccc4)cc3)nc12 (configuration not stated) -30.6%, Cn1c(=O)c2c(-c3ccccc3Br)n(Cc3ccccc3)cc2n(C)c1=O -17.1%, NS(=O)(=O)c1ccc(NC(=O)CN2CCN(c3ccc(F)cc3)CC2)cc1 -17.8%, COc1ccc(-n2c(SCC(=O)NC3CCCCC3)nc3c([nH]c4ccccc43)c2=O)cc1 -26.9%, COc1ccc(-c2cc3c(=O)n(CC(=O)Nc4cc(C)ccc4C)ccn3n2)cc1 12.4%, Cc1ccc(Cl)cc1-n1ncc2c(NCCC3=CCCCC3)ncnc21 19.1%, CCOc1ccc(-c2nnc(SCC(=O)c3ccc(F)cc3)n2-c2ccccc2)cc1 -37.2%, Cc1ccc(CNC(=O)c2cccc(NC(=O)N3CCSc4ncccc43)c2)cc1 -19.9%, Cc1ccc(S(=O)(=O)C(CNC(=O)COc2ccc(Cl)cc2)c2ccco2)cc1 (configuration not stated) -17.2%, Cc1cc(C)cc(NC(=O)CCCc2nnc3n(CC(C)C)c(=O)c4sccc4n23)c1 -3.61%, CCN(CC)CCCNC(=O)C(=O)Nc1ccc2nc3n(c(=O)c2c1)CCCCC3 10.6%, COc1ccc(/C=C/C(=O)Nc2ccc(Cl)cc2Cl)cc1 7.01%, Cc1ccc(NC(=O)Cn2cc(C(=O)c3ccco3)c3ccccc32)c(C)c1 -36.4%, O=C(Nc1cccc(Cl)c1)c1cc(S(=O)(=O)N2CCCc3ccccc32)ccc1F -30.5%, CCOc1cc(C2CC(=O)Nc3c2c(=O)nc(SCc2cccc(Cl)c2)n3C)ccc1O (configuration not stated) -1.12%, Cc1ccccc1CNC(=O)c1cc2cccc3c2n1CC(C)S3 (configuration not stated) -24.7%, CNC(=O)c1c(F)cccc1Nc1nc(Nc2cc3c(cc2OC)CCN3C(=O)CN(C)C)nc2[nH]ccc12 -47.9%, CCOc1ccc(NC(=O)Cn2c(=O)n(Cc3ccc(C(=O)NCc4ccc(C)cc4)cc3)c(=O)c3ccccc32)cc1 -8.68%, CC=CC[C@@H](C)C(=O)[C@H]1C(=O)N[C@@H](C(C)C)C(=O)N(C)CC(=O)N(C)[C@@H](CC(C)C)C(=O)N[C@@H](C(C)C)C(=O)N(C)[C@@H](CC(C)C)C(=O)N[C@@H](C)C(=O)N[C@H](C)C(=O)N(C)[C@@H](CC(C)C)C(=O)N(C)[C@@H](CC(C)C)C(=O)N(C)[C@@H](C(C)C)C(=O)N1C 17.2%, COc1cccc(CNC(=O)CN2C(=O)COc3ccc(S(=O)(=O)N4CCCCCC4)cc32)c1 -25.9%, CCc1cccc(NC(=O)Cn2c(=O)n(CCC(=O)NCC3CCCO3)c(=O)c3cc(OC)c(OC)cc32)c1 (configuration not stated) 1.66%, Cc1ccc(-c2nc3ncccc3o2)cc1NC(=O)c1ccccc1Br -3.19%, Cc1ccc(CNC(=O)c2cc3c(s2)-c2ccc(Cl)cc2SC3)cc1 -9.22%, CN(C)c1ccc(NC(=O)CN2CCN(CC(=O)Nc3ccc(Br)cc3)CC2)cc1 31.2%, Cc1ccc(CSC2=Nc3ccccc3C3=NC(CC(=O)NCc4cccs4)C(=O)N23)cc1 (configuration not stated) 0.814%, CC1CC(=O)N(CC(=O)Nc2ccc(F)cc2F)c2ccccc2S1 (configuration not stated) -14.5%

Source: PubChem BioAssay AID1508624 (National Center for Advancing Translational Sciences (NCATS), 2021)
